Reference: PubChem BioAssay AID1346428 (National Center for Advancing Translational Sciences (NCATS), 2018)
In all, about 48,000 compounds went through this assay and about 1,200 (2.5%) were called active. Inconclusive results (about 2%) are left out.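 The calls were made as follows: active = activation of at least 60% and not above a set upper limit (about 1 call in 100 departs from these limits); inconclusive = activation of 40% to 60%, or above that upper limit; inactive = activation under 40%.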 Some of the results follow.

What follows are molecules tested against Probable G-protein coupled receptor 32 (Homo sapiens) (UniProt O75388) (assay: qHTS for Agonists of Human Resolvin D1 Receptor DRV1). Settings: CHO-K1 GPR32 beta-arrestin PathHunter luminescence, 90 min; at 76.9 µM; hits give high values; zero percent set by DMSO-only wells.
Chain of UniProt O75388 (O75388 whole entry, looked up, the tested form may be a part): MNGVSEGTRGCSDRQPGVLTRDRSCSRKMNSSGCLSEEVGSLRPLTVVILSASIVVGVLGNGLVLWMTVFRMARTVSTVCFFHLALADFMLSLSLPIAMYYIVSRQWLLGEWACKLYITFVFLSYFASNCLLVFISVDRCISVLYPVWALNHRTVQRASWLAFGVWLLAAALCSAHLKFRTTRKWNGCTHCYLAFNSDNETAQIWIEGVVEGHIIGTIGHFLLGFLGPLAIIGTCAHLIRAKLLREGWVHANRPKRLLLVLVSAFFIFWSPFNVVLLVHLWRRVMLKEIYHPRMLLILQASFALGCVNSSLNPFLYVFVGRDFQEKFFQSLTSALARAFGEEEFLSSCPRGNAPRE
Outline: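 GPR32 activation in stably transfected CHO-K1 cells, detected as beta-arrestin recruitment by enzyme-fragment complementation. Compound exposure: 90 min, 37 °C.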
Also: 0% is about no effect.

Question: For `COc1ccc(NC(=O)c2c(NC(=O)COc3ccc(Cl)cc3)sc3c2CCCCC3)cc1`, which activation is on record?
Answer: inactive: -1.05%

Question: `CCOC(CN1CCN(CC(C)C(=O)c2ccccc2)CC1)c1ccccc1` (configuration not stated) was tested. Which activation did it give?
Answer: inactive: 36.3%

Question: For `COc1cc(OC)c(NC(=O)N2CCOc3ccc(C)cc32)cc1Cl`, which activation is on record?
Answer: inactive: -25.8%

Question: `COc1ccc(CNC(=O)c2oc3c(c2C)-c2nn(Cc4ccccc4Cl)cc2CC3)cc1` was tested. Which activation did it give?
Answer: inactive: -16.3%

Question: Which activation does the source give for `N#Cc1cc2c(=O)n3ccccc3nc2n(-c2nnc(SCc3ccc(F)cc3)s2)c1=O` here?
Answer: inactive: 20.8%

Question: For `Cc1ccc(C)c(NC(=O)C(=O)NCC(c2cccnc2)N2CCN(c3ccc(F)cc3)CC2)c1` (configuration not stated), which activation is on record?
Answer: inactive: -0.0473%

Question: `COc1ccc(Cn2nnc3c(=O)[nH]c(C4CCCN(C(=O)c5ccccc5Cl)C4)nc32)cc1OC` (configuration not stated) was tested. Which activation did it give?
Answer: inactive: 15.1%

Question: How did the activation turn out when `CCOC(=O)c1ccc(NC(=O)c2nc(S(=O)(=O)Cc3ccccc3)ncc2Cl)cc1` was run?
Answer: inactive: -16.5%

Question: For `COc1cc(NC(=O)C2=C(C)Nc3nnnn3C2c2ccc(SC)cc2)c(OC)cc1Cl` (configuration not stated), which activation is on record?
Answer: inactive: 0.477%

Question: With `Cc1ccc(S(=O)(=O)c2cn(C)c3cc(N4CCN(c5ccccc5)CC4)c(F)cc3c2=O)cc1` as the molecule, how does the activation read?
Answer: inactive: 0.789%

Question: How did the activation turn out when `CCOC(=O)N1CCc2c(sc3c2c(=O)n(Cc2ccccc2)c(=O)n3Cc2cccc(Cl)c2)C1` was run?
Answer: inactive: -15.2%

Question: How did the activation turn out when `CC1CN(C(=O)CCC(=O)NCc2cccs2)c2ccccc2O1` (configuration not stated) was run?
Answer: inactive: -2.53%

Question: How did the activation turn out when `COc1ccc(NC(=O)c2c(NCc3ccc(C)o3)sc3c2CCC(C)C3)cc1` (configuration not stated) was run?
Answer: inactive: 20.3%

Question: With `Cc1nn(CCCC(=O)NCc2ccccc2)c(=O)c2c1sc1ccccc12` as the molecule, how does the activation read?
Answer: inactive: -8.34%

Question: With `Cc1ccc(-n2nc(C(=O)N3CCCCC3C)c(=O)n(C)c2=O)cc1` (configuration not stated) as the molecule, how does the activation read?
Answer: inactive: 1.32%

Question: `CCOc1ccccc1NC(=O)C1CCN(S(=O)(=O)c2ccc(Br)cc2)CC1` was tested. Which activation did it give?
Answer: inactive: -9.34%

Question: Which activation does the source give for `COc1ccc(CCNC(=O)CSc2nnc(-c3ccc(C)cc3)c(-c3ccc(C)cc3)n2)cc1OC` here?
Answer: inactive: -48.1%

Question: For `CCCCOc1cccc(C(=O)N(Cc2ccc(Cl)cc2)C2CCS(=O)(=O)C2)c1` (configuration not stated), which activation is on record?
Answer: inactive: -9.63%

Question: With `Cc1ccc(-c2noc(-c3ccc(NCC4CCCO4)c([N+](=O)[O-])c3)n2)cc1` (configuration not stated) as the molecule, how does the activation read?
Answer: inactive: 4.64%

Question: Which activation does the source give for `CC(=O)c1ccc(N2CCN(C(=O)CS(=O)(=O)c3cccc4nsnc34)CC2)cc1` here?
Answer: active: 88.5%

Question: With `COc1cccc(C2=NN(S(C)(=O)=O)C(c3cn(-c4ccccc4)nc3-c3cccs3)C2)c1` (configuration not stated) as the molecule, how does the activation read?
Answer: inactive: -4.61%

Question: How did the activation turn out when `COc1ccc(CNC(=O)CN(C)c2nn3c(=O)cc(C)nc3s2)cc1` was run?
Answer: inactive: 8.98%

Question: `CC(=O)Oc1ccc(C2(c3ccc(OC(C)=O)cc3)Oc3ccccc3NC2=O)cc1` was tested. Which activation did it give?
Answer: inactive: -20.3%

Question: Which activation does the source give for `Cc1cc(=O)[nH]c2nnc(SCCC(C)C)n12` here?
Answer: inactive: 39.6%

Question: For `CCOc1ccc(C(=O)NCCS(=O)(=O)N2CCN(c3cccc(Cl)c3)CC2)cc1`, which activation is on record?
Answer: inactive: 6.5%

Question: Which activation does the source give for `COc1ccccc1NC(=O)N1CC=C(c2c[nH]c3ccccc23)CC1` here?
Answer: inactive: -19%

Question: How did the activation turn out when `COc1ccc(C(=O)c2cn(Cc3ccccc3F)c3ccc(F)cc3c2=O)cc1` was run?
Answer: inactive: -9.17%

Question: With `Cc1ccc(-c2nnc(Nc3ccc(Cl)cc3)c3ccccc23)cc1S(=O)(=O)NCC1CCCO1` (configuration not stated) as the molecule, how does the activation read?
Answer: inactive: -20.5%

Question: How did the activation turn out when `O=C(c1cccc(Cl)c1)N1CCC(c2nc3c(nnn3Cc3ccc(F)cc3F)c(=O)[nH]2)CC1` was run?
Answer: inactive: -13.7%

Question: How did the activation turn out when `Cc1cccc(NC(=O)c2oc3ccc(S(=O)(=O)N4CCCCC4)cc3c2C)c1C` was run?
Answer: inactive: 5.03%

Question: With `COc1ccc(-c2[nH]c(-c3ccc(OC)c(OC)c3)nc2SCC(=O)Nc2ccccc2)cc1` as the molecule, how does the activation read?
Answer: inactive: -33.7%

Question: With `Cc1ccc(Nc2c(-c3ccc(N(C)C)cc3)nc3ccccn23)cc1` as the molecule, how does the activation read?
Answer: inactive: -22.9%

Question: For `Cn1ccc2cc(S(=O)(=O)N3CCCN(C(=O)Nc4ccc(Br)cc4)CC3)ccc21`, which activation is on record?
Answer: inactive: 34.5%

Question: How did the activation turn out when `C=CCNc1ncnc2ccc(Br)cc12` was run?
Answer: inactive: 4.32%

Question: `CCOc1ccccc1C(=O)N(Cc1ccc(N(C)C)cc1)Cc1ccco1` was tested. Which activation did it give?
Answer: inactive: -32.8%

Question: `CC(C)c1ccc(C2c3c(-c4ccccc4O)n[nH]c3C(=O)N2CCc2ccccc2)cc1` (configuration not stated) was tested. Which activation did it give?
Answer: inactive: 8.41%

Question: Which activation does the source give for `Cc1ccc(-n2ncc3c(NNC(=O)c4ccccc4C)ncnc32)cc1` here?
Answer: inactive: -10.3%

Question: With `COc1ccc(-c2c(C)nn3c(N4CCC(C(=O)NCCC(C)C)CC4)cc(C)nc23)cc1OC` as the molecule, how does the activation read?
Answer: inactive: 15.3%

Question: With `CCN(CC)CCn1c(=N)n(CC(O)COc2ccccc2C)c2ccccc21` (configuration not stated) as the molecule, how does the activation read?
Answer: inactive: -0.595%

Question: How did the activation turn out when `Cc1ccc(Cn2c(=O)c3c(nc4n3CCN4c3cc(C)cc(C)c3)n(C)c2=O)cc1` was run?
Answer: inactive: -5.41%

Question: Which activation does the source give for `CCc1ccc(-c2[nH]c3c(c2-c2c(-n4cccc4)n(C)c(=O)n(C)c2=O)c(=O)n(C)c(=O)n3C)cc1` here?
Answer: inactive: 29.4%

Question: For `CC(C)CCn1c(SCc2ccc(F)cc2Cl)nc2ccsc2c1=O`, which activation is on record?
Answer: inactive: 0.55%

Question: With `CC1=C(C(=O)Nc2ccccc2)C(c2ccc(C(=O)O)cc2)n2nc(SCC(=O)c3ccc(C)cc3)nc2N1` (configuration not stated) as the molecule, how does the activation read?
Answer: inactive: 40.4%

Question: How did the activation turn out when `COc1ccc(-c2nc(CCNC(=O)c3cc(OC)c(OC)c(OC)c3)cs2)cc1` was run?
Answer: inactive: -4.05%

Question: How did the activation turn out when `COCCCNC(=O)c1ccc(NC(=O)N2CCCCc3ccccc32)cc1` was run?
Answer: inactive: -9.05%

Question: How did the activation turn out when `C#CC1(O)CC[C@H]2[C@@H]3CCC4=CCCC[C@@H]4[C@H]3CC[C@@]21C` (some centres not stated) was run?
Answer: active: 105%

Question: For `COc1ccc(CNC(=O)Cc2c(C)c3c(cc(C)c4c(C)coc43)oc2=O)cc1`, which activation is on record?
Answer: inactive: -7.4%

Question: For `COc1ccc(Cl)cc1NC(=O)CCCn1c(=O)c2cccn2c2cccnc21`, which activation is on record?
Answer: inactive: -12.5%

Question: With `CCCN1CCN(CC2=C(C(=O)OCC)C(c3ccc(Cl)cc3)NC(=O)N2)CC1` (configuration not stated) as the molecule, how does the activation read?
Answer: inactive: -3.63%

Question: `CCOC(=O)N1CCc2c(sc(NCc3ccc(OC)c(Br)c3)c2C(=O)Nc2cc(OC)ccc2OC)C1` was tested. Which activation did it give?
Answer: inactive: -8.68%

Question: With `CCOC(=O)c1ccccc1NC(=O)N(Cc1ccc(C)cc1)Cc1cccn1-c1nnc(N2CCCC2=O)s1` as the molecule, how does the activation read?
Answer: inactive: -10.9%

Question: With `COC(=O)c1c(NC(=O)c2ccc(S(=O)(=O)N3CCCCC3C)cc2)sc2c1CCN(C(C)C)C2` (configuration not stated) as the molecule, how does the activation read?
Answer: inactive: -15.1%

Question: For `CCC(C)n1c(=N)c(S(=O)(=O)c2ccc(C)cc2)cc2c(=O)n3cc(C)ccc3nc21` (configuration not stated), which activation is on record?
Answer: inactive: -9.65%

Question: How did the activation turn out when `Cc1ccccc1-c1noc(CSc2nnc(Cc3ccccc3)n2-c2ccc(F)cc2)n1` was run?
Answer: inactive: -32.3%

Question: `COc1ccc(-c2noc(CSc3nnc(-c4ccncc4)n3-c3ccccc3)n2)cc1` was tested. Which activation did it give?
Answer: inactive: 7.23%

Question: `Cc1ccc(CNC(=O)c2c(-c3ccccc3F)noc2C)o1` was tested. Which activation did it give?
Answer: inactive: -18.5%

Question: For `COc1cccc(NC(=O)Cn2c(=O)n(CCCC(=O)NCc3ccc4c(c3)OCO4)c(=O)c3ccccc32)c1`, which activation is on record?
Answer: inactive: 0.596%

Question: For `Cc1ccc2c(c1)c(=O)c1ccccc1n2CCCC(=O)Nc1ccc(F)cc1F`, which activation is on record?
Answer: inactive: -6.26%

Question: `O=C(NC1CC(=O)N(c2ccccc2)C1)C1CCCC1` (configuration not stated) was tested. Which activation did it give?
Answer: inactive: -8.06%

Question: `Cc1ccc(CSc2nc(=O)c3c(C)cc(C)nc3n2C2CC2)cc1` was tested. Which activation did it give?
Answer: inactive: 8.18%

Question: How did the activation turn out when `CC(Sc1ncc(S(=O)(=O)c2ccc(C(C)C)cc2)c(N)n1)C(=O)Nc1ccccc1` (configuration not stated) was run?
Answer: inactive: 1.46%

Question: `COc1ccc(NC(=O)Cn2c(=O)n(-c3ccc(Cl)cc3)c(=O)c3c(C)c(C(=O)N(C)C)sc32)cc1Cl` was tested. Which activation did it give?
Answer: inactive: -15.8%

Question: With `COC(=O)c1ccc2nc(C)cc(Nc3ccc(O)cc3)c2c1` as the molecule, how does the activation read?
Answer: inactive: -1.56%

Question: `CCOC(=O)c1cc(-c2ccc(F)cc2)n(CCC(=O)Nc2ccccc2OC)c1C` was tested. Which activation did it give?
Answer: inactive: -22.8%

Question: How did the activation turn out when `Cc1cccc(Oc2nc3c(C)cccn3c(=O)c2/C=C(\C#N)c2nc3ccccc3s2)c1` was run?
Answer: inactive: -2.39%

Question: For `CCOC(=O)c1ccc(NC(=O)C(=O)NCc2ccco2)cc1`, which activation is on record?
Answer: inactive: 23.2%

Question: For `COc1cccc(Cc2nc3ccccc3nc2SCC(=O)N2CCc3ccccc32)c1`, which activation is on record?
Answer: inactive: -10.8%

Question: How did the activation turn out when `COC(=O)c1cc(Cl)c(NC(=O)/C=C/c2ccc(Cl)cc2Cl)cc1OC` was run?
Answer: inactive: 5.37%

Question: For `CCOC(=O)c1ccc(NC2=CC(c3ccc(Br)cc3)N(c3ccc(C(=O)OCC)cc3)C2=O)cc1` (configuration not stated), which activation is on record?
Answer: inactive: -12.1%

Question: How did the activation turn out when `Cc1cccc(C2NC(=O)c3c(sc4c3CCN(C)C4)N2)c1O` (configuration not stated) was run?
Answer: inactive: 11.2%

Question: For `COCCNC(=O)CSc1nnc(-c2ccc(OC)c(OC)c2)c(-c2ccc(OC)c(OC)c2)n1`, which activation is on record?
Answer: inactive: -20.8%

Question: With `CCOc1ccc(N2CC(c3nc4ccccc4n3CCCOc3ccc(OC)cc3)CC2=O)cc1` (configuration not stated) as the molecule, how does the activation read?
Answer: inactive: 0.858%

Question: With `O=S(=O)(c1ccccc1)c1nc(-c2cccc(Cl)c2)oc1NCc1ccccc1` as the molecule, how does the activation read?
Answer: inactive: 2.56%

Question: For `COc1ccc(Br)c2c1-c1nc(NC(=O)c3ccccc3SC)sc1C2`, which activation is on record?
Answer: inactive: -27%

Question: How did the activation turn out when `Cc1c(C(=O)NCCN(C)C)oc2c1-c1nn(Cc3ccccc3Cl)cc1CC2` was run?
Answer: inactive: -11.1%

Question: How did the activation turn out when `COc1ccccc1-c1c(C)nn2c(N3CCN(c4ccc(Cl)cc4)CC3)cc(C)nc12` was run?
Answer: inactive: -11.8%

Question: `CCCCOc1ccc(S(=O)(=O)Nc2cccc(-c3ccc(N4CCOCC4)nn3)c2)cc1` was tested. Which activation did it give?
Answer: inactive: 9.04%

Question: `COc1ccc(N(CC(=O)N2CCN(c3cc(C)ccc3C)CC2)S(=O)(=O)c2c(C)noc2C)cc1` was tested. Which activation did it give?
Answer: inactive: -7.34%

Question: `CC(Sc1nc(-c2ccccc2)c(C#N)c(=O)[nH]1)C(=O)Nc1ccc(F)cc1` (configuration not stated) was tested. Which activation did it give?
Answer: inactive: 3.33%

Question: How did the activation turn out when `CCOC(=O)c1ccc(Nc2nc(C)cc(C)n2)cc1` was run?
Answer: inactive: 5.53%

Question: How did the activation turn out when `O=C1CC(c2nc3ccccc3n2CCC2CCCCC2)CN1c1ccccc1Cl` (configuration not stated) was run?
Answer: inactive: -6.47%

Question: How did the activation turn out when `Cc1cccc(N2CCN(C(=O)CCCn3c(=O)[nH]c4ccsc4c3=O)CC2)c1C` was run?
Answer: inactive: 19%
